These results are taken from paper PMC12136788.

The labels stand for the following.
T1: UNK ZnF1-3 (human, UniProt Q9C0B0 31-174)
T1 sequence: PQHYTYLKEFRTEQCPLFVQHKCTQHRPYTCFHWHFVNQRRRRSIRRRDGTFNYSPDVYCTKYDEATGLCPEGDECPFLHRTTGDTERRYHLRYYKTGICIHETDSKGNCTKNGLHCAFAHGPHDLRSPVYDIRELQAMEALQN

B1: chr11:100879890:100879891:+_ENSMUSG00000019302_ENSMUST00000044721|mus_mus|motif|central (ssRNA)
RNA: GGGAGUUCUACAGUCCGACGAUCCUGGAAAACAUUCACAUCUGGAUUUAAAUCCCGAAAUUGGACCUUCCCAAGCUCUCCGGAUUCACUGACACAGCAAUAAGCAGCUUCAGACUGUAGAAAUAGCUGGGCCAGCGUCAUCUCCAACAGAGGAUUGAGCAUCA
B2: chr1:93988920:93988921:+_ENSG00000137942_ENST00000370253|hu_mus|FALSE|FALSE (ssRNA)
RNA: GGGAGUUCUACAGUCCGACGAUCCAGAUCAUGGGCAUAUCUCAUUAAUUCACCAUAUACUCUGUGCGCCAUUUCUUCUGCUACUACCUCUCGCUGUCCUGCAUAGUCGUUUAACUCAUUAAGGAUGUUAAAAAAGGCGAUACACAACAGAGGAUUGAGCAUCA
B3: chr9:83676842:83676843:-_ENSMUSG00000032262_ENSMUST00000034796|mus_hu|FALSE|FALSE (ssRNA)
RNA: GGGAGUUCUACAGUCCGACGAUCAAUCCAUGGGCCAAAUGCAGUUAACCCAUAGUAUGAGUACAUAAUCACAUGGAUAAAGGAAUUCAACUGGGCUCCAAAAAAUGCUUGUCCUCCUGCAACCCACUUAAUUCCAAUCCACCACAACAGAGGAUUGAGCAUCA
B4: chr12:48362563:48362564:+_ENSG00000134291_ENST00000256686|hu_hu|hu_hu_hu_mus_False|38_38 (ssRNA)
RNA: GGGAGUUCUACAGUCCGACGAUCUCCGUCAAGCCCUUCGAUAGACCCUUGCGGGGGAAACUGUAAUCACUUUGUAUGGGGAAGGAAAAGAAACGCCAACACACUUUCAAAAAGCGGGGGUGGGGUGAGGCGGGAGGGGGAGGUCAACAGAGGAUUGAGCAUCA
B5: 90016286_90016406_504_CDS_ENSMUSG00000057706_ENSMUST00000082237|mouse|control|control (ssRNA)
RNA: GGGAGUUCUACAGUCCGACGAUCGGAACUGGGUACCGGCACGCACUCGGUCAUGUUCACGCUCUUCUUGCGCGGUUCGCUGUCGUACAAAGAGGCGCCCUCAUCACUGUCCAGUCCCAACAGGGAGAGCUGAUCGAGCGCAAGCAACAGAGGAUUGAGCAUCA
B6: chr14:78183846:78183847:+_ENSG00000119705_ENST00000557342|hu_hu|hu_hu_hu_mus_False|38_78 (ssRNA)
RNA: GGGAGUUCUACAGUCCGACGAUCUCUCAGAAAUCUUUCUUCAUCAGAUGUUUGAGCUGUUUGCGGAGCCUUUGCUCUUUGAGCUUGAACGUGGAUCUUUACUCCAUAAAGCACUGUCAGAAAAGGUAAUUUUUUUUUUAAAGACAACAGAGGAUUGAGCAUCA
B7: chr5:72798899:72798900:+_ENSG00000145741_ENST00000335895|hu_hu|motif|central (ssRNA)
RNA: GGGAGUUCUACAGUCCGACGAUCUGGUGCUUUUCCAUCCACAGAUUGUUUGGGCAGAGCUUCGGCCAGUCUCCUUAAACGGGUCAGACUAUCCGCACCAAGCUGGUUUAAGAUGCUGGGUAGCAUUUCUGUCAGCUGCUUUGUCAACAGAGGAUUGAGCAUCA
B8: 122662726_122664163_3219_CDS_ENSG00000120008_ENST00000263461|human|control|control (ssRNA)
RNA: GGGAGUUCUACAGUCCGACGAUCGUCUGUUUGACCCAAGAGCAGUAGCUGGUCUGUACAUUUCCUUGUAUGAUCAUAAGUUGACCGUUUCACUUCCUGCAGAUUAACCCUUUCUAGCUGAAAUUUCUGAAAGUAGGCAUUUUCCAACAGAGGAUUGAGCAUCA
B9: chr1:66461069:66461070:+_ENSMUSG00000015222_ENSMUST00000114013|mus_mus|motif|central (ssRNA)
RNA: GGGAGUUCUACAGUCCGACGAUCUUGACUAUCUGGUUUUACAGUGACUGGGCUUUCAUCAGCGACAGGUGGCAAACUGGUACGGCUCUCUGCAAGCAUAGCCUCUGAUGGGACUGAUUUCCUCCUGGCAACCUCAGCAUCUGCCAACAGAGGAUUGAGCAUCA
B10: chr11:79222206:79222207:+_ENSMUSG00000020716_ENSMUST00000071325|mus_hu|motif|central (ssRNA)
RNA: GGGAGUUCUACAGUCCGACGAUCUUUUGUAAAUUCAUCUGGAUAAUUUUCUACCCAGUUCCAAAAUGCCUUUUCCAGGCGGUUUAUAACUGCUAACUGCGCAACCUUCUUUAGGGCUUUAAAUUUAAAUGCUGUUUCCUUCAGCAACAGAGGAUUGAGCAUCA
B11: chr22:19452774:19452775:-_ENSG00000070010_ENST00000399523|hu_hu|hu_hu_hu_mus_False|58_78 (ssRNA)
RNA: GGGAGUUCUACAGUCCGACGAUCCUUCUCAUUGUAGUUGAUAGCAAUCACAUCUCCGGUGGUCAGACAGGCGAAGUUCCUAAGUGCAUUUUCUAAUACCGCUUUAGGGUUGGUAAUAUCCAGGAAGUCUGGGCUCUGAGGCUGCAACAGAGGAUUGAGCAUCA
B12: chr5:128448638:128448639:+_ENSG00000066583_ENST00000173527|hu_mus|hu_hu_hu_mus_False|68_98 (ssRNA)
RNA: GGGAGUUCUACAGUCCGACGAUCGGCACUCGCCUUAAUUAGAUUCUGAAUUUCCUUGAACUUCGGGUGGUCCUUAUCAGCCACCAGCUGUAGGAGGACAGCCUCACUAGUGGUCACGAUGAUCCCAGUGCGGGCAAGACGCUCCAACAGAGGAUUGAGCAUCA
B13: chr8:126347721:126347722:+_ENSMUSG00000019478_ENSMUST00000118535|mus_hu|FALSE|FALSE (ssRNA)
RNA: GGGAGUUCUACAGUCCGACGAUCCUGAUGAAGUAAGCAAGAUUUGCCAGUUCCUGCAUUUCCAAUAACCAAGAACUUAAACAAAAAAUCGUAGGUUUCGGACAUGGCCGUCUGCGACAUCUUGGGAGCGGCGCCGCCUCUCGCCAACAGAGGAUUGAGCAUCA
B14: chr6:38652254:38652255:-_ENSG00000124767_ENST00000373365|hu_hu|hu_hu_hu_mus_False|8_58 (ssRNA)
RNA: GGGAGUUCUACAGUCCGACGAUCCGAGAACUUCAUAGCAGGGAAGUCAAGCUUCUGCAGGAGGGUCAGUCCAAGAACUCUAGUAUAAAAAUCCAGGGACUUCUUAGGAUCCUUAAUUCUUAGCAUCGUCUGCUGCAGUAGAAACAACAGAGGAUUGAGCAUCA
B15: chr3:41280641:41280642:+_ENSG00000168036_ENST00000349496|hu_mus|FALSE|FALSE (ssRNA)
RNA: GGGAGUUCUACAGUCCGACGAUCCAUAGGGUCCAUCCCCAAGGCAUCCUGGCCGUAUCCACCAGAGUGAAAAGAACGGUAGCUGGGAUCAUCCUGGCGAUAUCCAAGGGCUUCUCCCUGGGCACCAAUGUCCAGUCCAAGAUCCAACAGAGGAUUGAGCAUCA
B16: chr5:21408736:21408737:-_ENSMUSG00000042453_ENSMUST00000161356|mus_hu|mus_mus_mus_hu_False|58_108 (ssRNA)
RNA: GGGAGUUCUACAGUCCGACGAUCGUUGACAGCAUUAUAGAUGGUGGCUUCAUGGAACUGGAAAGGGGAGCAGCCAAUGCUAUUGGAAGAGGAAGGAAGGCACUGGGUCUGUACGAGCUGCCAGGAAUCCGAUCUUGCAUCCUUCAACAGAGGAUUGAGCAUCA
B17: chr10:111893599:111893600:+_ENSG00000148700_ENST00000277900|hu_mus|FALSE|FALSE (ssRNA)
RNA: GGGAGUUCUACAGUCCGACGAUCCAGGCAGCAGCUGCUAAGGAGCAACAGUAACAACGCUCUGCCAGGGACGGCAGAGUCGGCCAAGCCAGCCACUGCUGAAAAGCUCGGCCGUUUUCGGACAUAUAAAAAGAGAUGAAUUUGCAACAGAGGAUUGAGCAUCA
B18: chr11:100445569:100445570:-_ENSMUSG00000014195_ENSMUST00000014339|mus_hu|FALSE|FALSE (ssRNA)
RNA: GGGAGUUCUACAGUCCGACGAUCUGGAUCAAAAUCACCCAUAUUCAUGCCCUCCUCAUCUAGGUCCUGUCCACUGUCAUAGCGAGUCUUUUUCUUGGGAUCAGAGAGGAUAGUAAAGGCCUCUCCAACUUCCUUGAACUUCUUCAACAGAGGAUUGAGCAUCA
B19: chr18:40848303:40848304:-_ENSG00000132872_ENST00000255224|hu_mus|motif|central (ssRNA)
RNA: GGGAGUUCUACAGUCCGACGAUCUAAAACCAGUUAUAGUUUCAAUCAACUUUCCCCAUCAAAACACUUUAAGUCGUAAAACGGAAAACUAUUUACAAUUUUUAAAGUAUUUGUUGUCAGAUUUAUUUUCUAUUUUAAAAAAAACAACAGAGGAUUGAGCAUCA
B20: chr15:78764095:78764096:+_ENSG00000136381_ENST00000258886|hu_hu|FALSE|FALSE (ssRNA)
RNA: GGGAGUUCUACAGUCCGACGAUCGUUUAUUUGAUGAGCCAUUCCAGUUCCAGGAGGGAUCACUGCCACAUUCUUAAAAACUCUUGAACUCCACUUAAAAAACUGAAGCCUCUCUCGAUUUCUGCCGAAUUCUACUUCUUGAUUCAACAGAGGAUUGAGCAUCA
B21: chr1:58468927:58468928:-_ENSMUSG00000026034_ENSMUST00000148330|mus_mus|mus_mus_mus_hu_False|58_108 (ssRNA)
RNA: GGGAGUUCUACAGUCCGACGAUCAAUCUAUAAUUACGAUGUUCAUUACCUUAGCUAUGUACUUAAUGAACCAAAUUAUCUAAAAAAAAUAAACAUGGCAAUAUAAAAAUGUUAAGAAUUUACAAAGCUGUACAAAAUAACUUACAACAGAGGAUUGAGCAUCA
B22: chr13:58910217:58910218:+_ENSMUSG00000055254_ENSMUST00000079828|mus_mus|motif|central (ssRNA)
RNA: GGGAGUUCUACAGUCCGACGAUCGCUGUUAGGUUCCAACCUCGGGAAUGCCACGAUGCCUGGAGAAGGCUCAGUACACCAAAUCCGGGCGGAACUGCAUUUGCAGGACGUCGGGCAGGCGAGAGAGGCCCUCCAGAAGCCCAACAACAGAGGAUUGAGCAUCA

The other results are listed elsewhere or left out.

This assay concerns the target T1, UNK ZnF1-3. As to the kind of experiment: nsRBNS (natural sequence RNA bind-n-seq); RBNS binding buffer (assumed for nsRBNS): 25 mM Tris pH 7.5, 150 mM KCl, 3 mM MgCl2, 0.01% Triton X-100, 500 ug/ml BSA, 20 U/ml SUPERase-In, 4 C; UNK is unkempt and MSI1 is Musashi-1; names of the RNAs are library labels; protein concentration not given here; high values mean tight binding.
For B1, the binding signal is 0.493 enrichment R.

B2 came in with a binding signal of 1.08 enrichment R.

As to B3, the binding signal is 0.832 enrichment R.

B4 yielded a binding signal of 2.02 enrichment R.

B5 registered a binding signal of 0.721 enrichment R.

B6 yielded a binding signal of 0.932 enrichment R.

B7 showed a binding signal of 0.616 enrichment R.

In the case of B8, the binding signal amounted to 0.78 enrichment R.

Molecule B9 gave a binding signal of 0.795 enrichment R.

In turn, B10 registered a binding signal of 0.782 enrichment R.

Molecule B11 had a binding signal of 1.03 enrichment R.

For B12, the binding signal was found to be 0.755 enrichment R.

B13: the binding signal was 0.986 enrichment R.

For the molecule B14, the binding signal came out at 1.24 enrichment R.

As to B15, the binding signal was found to be 0.986 enrichment R.

B16 registered a binding signal of 1.77 enrichment R.

In the case of B17, the binding signal was 1.2 enrichment R.

B18 showed a binding signal of 0.785 enrichment R.

Molecule B19 displayed a binding signal of 1.75 enrichment R.

With B20, the binding signal came out at 1.44 enrichment R.

The molecule B21 returned a binding signal of 0.878 enrichment R.

Regarding B22, the binding signal worked out at 0.599 enrichment R.
